Experiment [1] has as its target T1, hexokinase domain component 1 (HKDC1), endogenous (human (endogenous in Hep3B)) (UniProt Q2TB90).
T1 sequence: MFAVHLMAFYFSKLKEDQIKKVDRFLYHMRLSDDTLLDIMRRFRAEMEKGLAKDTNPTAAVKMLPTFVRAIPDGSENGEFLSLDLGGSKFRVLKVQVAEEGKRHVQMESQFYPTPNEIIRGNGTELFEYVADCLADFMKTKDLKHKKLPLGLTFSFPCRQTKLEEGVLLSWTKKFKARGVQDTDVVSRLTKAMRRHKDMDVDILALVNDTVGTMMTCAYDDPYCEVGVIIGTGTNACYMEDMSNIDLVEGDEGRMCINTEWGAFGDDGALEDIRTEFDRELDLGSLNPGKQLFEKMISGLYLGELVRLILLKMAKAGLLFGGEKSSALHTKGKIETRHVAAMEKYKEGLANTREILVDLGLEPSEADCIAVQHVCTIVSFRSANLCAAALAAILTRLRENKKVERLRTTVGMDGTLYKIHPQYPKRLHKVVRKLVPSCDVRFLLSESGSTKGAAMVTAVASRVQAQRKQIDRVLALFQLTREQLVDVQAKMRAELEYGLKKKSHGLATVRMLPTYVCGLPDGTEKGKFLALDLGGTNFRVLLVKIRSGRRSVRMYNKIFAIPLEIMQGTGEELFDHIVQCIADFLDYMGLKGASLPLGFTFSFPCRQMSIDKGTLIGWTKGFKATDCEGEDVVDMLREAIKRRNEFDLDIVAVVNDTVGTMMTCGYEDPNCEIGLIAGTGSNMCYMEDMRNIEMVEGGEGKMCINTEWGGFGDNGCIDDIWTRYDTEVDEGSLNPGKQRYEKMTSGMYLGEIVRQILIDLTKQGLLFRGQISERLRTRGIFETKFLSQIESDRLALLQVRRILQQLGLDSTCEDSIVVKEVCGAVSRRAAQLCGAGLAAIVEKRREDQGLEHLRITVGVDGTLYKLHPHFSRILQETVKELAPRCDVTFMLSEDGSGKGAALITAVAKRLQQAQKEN
Description: co-IP; endogenous proteins in Hep3B (HCC) cells; NP-40 IP buffer (20 mM Tris-HCl pH 7.5, 150 mM NaCl, 1.5 mM MgCl2, 2 mM EDTA, 1% NP-40), antibody overnight at 4 °C, protein A/G beads, Western blot.

Protein sequences, listed by entry. Tags and fused reporters are not part of them.
UniProt P42224: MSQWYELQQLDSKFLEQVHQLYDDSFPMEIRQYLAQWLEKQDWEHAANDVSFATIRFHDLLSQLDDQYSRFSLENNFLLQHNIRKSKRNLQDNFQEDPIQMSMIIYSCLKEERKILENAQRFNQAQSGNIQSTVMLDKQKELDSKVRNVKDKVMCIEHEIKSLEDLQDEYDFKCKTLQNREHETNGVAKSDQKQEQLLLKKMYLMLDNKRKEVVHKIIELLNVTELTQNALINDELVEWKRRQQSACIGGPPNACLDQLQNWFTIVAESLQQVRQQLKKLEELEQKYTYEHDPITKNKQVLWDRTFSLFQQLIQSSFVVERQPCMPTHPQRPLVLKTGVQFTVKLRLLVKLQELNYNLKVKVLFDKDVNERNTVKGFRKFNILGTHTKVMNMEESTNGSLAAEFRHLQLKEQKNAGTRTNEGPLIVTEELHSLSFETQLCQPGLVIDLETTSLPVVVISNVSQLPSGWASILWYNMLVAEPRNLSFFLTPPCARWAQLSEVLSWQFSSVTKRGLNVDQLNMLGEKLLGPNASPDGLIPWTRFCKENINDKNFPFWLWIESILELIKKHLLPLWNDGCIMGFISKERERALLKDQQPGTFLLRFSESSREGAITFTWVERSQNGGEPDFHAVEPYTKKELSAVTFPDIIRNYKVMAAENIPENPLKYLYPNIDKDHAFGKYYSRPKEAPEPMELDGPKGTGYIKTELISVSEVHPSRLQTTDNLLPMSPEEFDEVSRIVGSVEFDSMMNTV
UniProt P68366: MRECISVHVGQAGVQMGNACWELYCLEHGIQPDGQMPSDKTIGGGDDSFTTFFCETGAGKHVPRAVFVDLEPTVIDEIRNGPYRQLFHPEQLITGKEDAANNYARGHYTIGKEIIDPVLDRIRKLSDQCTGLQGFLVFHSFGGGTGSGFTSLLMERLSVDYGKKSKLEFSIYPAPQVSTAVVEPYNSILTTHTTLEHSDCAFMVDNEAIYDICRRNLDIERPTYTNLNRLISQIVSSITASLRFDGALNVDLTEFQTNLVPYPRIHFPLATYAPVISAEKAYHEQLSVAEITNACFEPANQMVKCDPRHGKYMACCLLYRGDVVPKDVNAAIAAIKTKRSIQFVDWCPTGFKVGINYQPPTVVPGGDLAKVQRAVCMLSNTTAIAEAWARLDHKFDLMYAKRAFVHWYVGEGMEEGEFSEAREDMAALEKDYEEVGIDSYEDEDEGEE

For experiment [2], the target named is T2, Flag-tagged HKDC1 (human) (UniProt Q2TB90).
T2 sequence: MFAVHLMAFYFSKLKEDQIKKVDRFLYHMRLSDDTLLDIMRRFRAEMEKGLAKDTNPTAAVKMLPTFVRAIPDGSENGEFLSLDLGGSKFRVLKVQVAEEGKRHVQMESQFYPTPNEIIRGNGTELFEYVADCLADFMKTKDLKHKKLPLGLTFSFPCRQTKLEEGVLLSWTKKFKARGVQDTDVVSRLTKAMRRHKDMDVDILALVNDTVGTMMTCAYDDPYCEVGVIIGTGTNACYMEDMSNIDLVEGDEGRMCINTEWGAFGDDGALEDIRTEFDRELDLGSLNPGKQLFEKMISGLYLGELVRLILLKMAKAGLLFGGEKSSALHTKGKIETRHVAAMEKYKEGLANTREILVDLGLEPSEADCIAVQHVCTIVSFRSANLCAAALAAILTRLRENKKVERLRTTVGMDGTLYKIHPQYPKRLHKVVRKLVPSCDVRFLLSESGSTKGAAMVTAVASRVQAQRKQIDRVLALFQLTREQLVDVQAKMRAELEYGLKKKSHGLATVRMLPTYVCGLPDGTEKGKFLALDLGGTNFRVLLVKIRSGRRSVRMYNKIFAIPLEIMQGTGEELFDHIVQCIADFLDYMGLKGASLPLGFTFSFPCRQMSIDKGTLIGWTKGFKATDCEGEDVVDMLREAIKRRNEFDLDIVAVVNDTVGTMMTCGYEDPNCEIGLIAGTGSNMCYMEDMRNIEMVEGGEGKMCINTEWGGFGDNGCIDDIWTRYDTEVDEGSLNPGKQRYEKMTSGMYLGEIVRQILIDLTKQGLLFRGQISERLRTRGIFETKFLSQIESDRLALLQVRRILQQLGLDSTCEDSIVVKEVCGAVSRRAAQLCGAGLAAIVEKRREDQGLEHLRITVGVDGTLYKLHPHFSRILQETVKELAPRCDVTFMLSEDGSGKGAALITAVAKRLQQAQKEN
Description: co-IP; Flag- or HA-tagged proteins expressed in Hep3B (HCC) cells, with or without IFNγ stimulation, cells expressing NTC, shHKDC1 or shACTA2; NP-40 IP buffer, antibody overnight at 4 °C, protein A/G beads, Western blot. For orientation: Immunoblotting shows a protein as a band on a membrane.

The next experiment deals with T3, GST-HKDC1^WT (human) (UniProt Q2TB90).
T3 sequence: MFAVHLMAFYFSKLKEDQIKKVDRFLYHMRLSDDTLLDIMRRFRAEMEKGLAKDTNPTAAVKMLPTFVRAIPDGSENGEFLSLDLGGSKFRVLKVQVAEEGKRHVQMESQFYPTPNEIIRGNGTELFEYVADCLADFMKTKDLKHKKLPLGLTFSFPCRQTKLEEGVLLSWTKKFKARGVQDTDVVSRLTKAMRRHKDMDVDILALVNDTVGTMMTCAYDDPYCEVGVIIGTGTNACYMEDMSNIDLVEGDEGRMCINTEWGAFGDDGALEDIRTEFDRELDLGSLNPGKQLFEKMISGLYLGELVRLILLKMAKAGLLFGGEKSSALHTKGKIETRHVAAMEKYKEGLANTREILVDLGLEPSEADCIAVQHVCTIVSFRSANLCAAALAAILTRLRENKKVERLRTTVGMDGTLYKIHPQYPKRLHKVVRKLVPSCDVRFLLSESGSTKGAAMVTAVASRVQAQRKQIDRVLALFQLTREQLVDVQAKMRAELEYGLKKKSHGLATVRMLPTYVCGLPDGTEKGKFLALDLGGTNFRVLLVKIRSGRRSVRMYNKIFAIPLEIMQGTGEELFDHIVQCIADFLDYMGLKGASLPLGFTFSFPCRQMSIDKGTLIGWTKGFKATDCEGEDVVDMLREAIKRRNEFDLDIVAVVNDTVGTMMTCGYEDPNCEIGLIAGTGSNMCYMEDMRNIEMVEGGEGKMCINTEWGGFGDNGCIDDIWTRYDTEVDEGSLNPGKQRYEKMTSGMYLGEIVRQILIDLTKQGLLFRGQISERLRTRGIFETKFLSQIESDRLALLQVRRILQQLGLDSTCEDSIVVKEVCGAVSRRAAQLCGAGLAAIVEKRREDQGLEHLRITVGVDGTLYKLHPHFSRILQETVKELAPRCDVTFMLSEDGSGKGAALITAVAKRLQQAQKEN
Description: pull-down; GST-fused HKDC1 and His-tagged STAT1 purified from E. coli, incubated in vitro in pull-down buffer (150 mM NaCl, 50 mM Tris pH 7.5, 0.1% NP-40, 5 mM dithiothreitol); Western blot with antibody against His-tag; both purified.

In another experiment the target is T4, GST-HKDC1^S602A (human) (UniProt Q2TB90).
T4 sequence: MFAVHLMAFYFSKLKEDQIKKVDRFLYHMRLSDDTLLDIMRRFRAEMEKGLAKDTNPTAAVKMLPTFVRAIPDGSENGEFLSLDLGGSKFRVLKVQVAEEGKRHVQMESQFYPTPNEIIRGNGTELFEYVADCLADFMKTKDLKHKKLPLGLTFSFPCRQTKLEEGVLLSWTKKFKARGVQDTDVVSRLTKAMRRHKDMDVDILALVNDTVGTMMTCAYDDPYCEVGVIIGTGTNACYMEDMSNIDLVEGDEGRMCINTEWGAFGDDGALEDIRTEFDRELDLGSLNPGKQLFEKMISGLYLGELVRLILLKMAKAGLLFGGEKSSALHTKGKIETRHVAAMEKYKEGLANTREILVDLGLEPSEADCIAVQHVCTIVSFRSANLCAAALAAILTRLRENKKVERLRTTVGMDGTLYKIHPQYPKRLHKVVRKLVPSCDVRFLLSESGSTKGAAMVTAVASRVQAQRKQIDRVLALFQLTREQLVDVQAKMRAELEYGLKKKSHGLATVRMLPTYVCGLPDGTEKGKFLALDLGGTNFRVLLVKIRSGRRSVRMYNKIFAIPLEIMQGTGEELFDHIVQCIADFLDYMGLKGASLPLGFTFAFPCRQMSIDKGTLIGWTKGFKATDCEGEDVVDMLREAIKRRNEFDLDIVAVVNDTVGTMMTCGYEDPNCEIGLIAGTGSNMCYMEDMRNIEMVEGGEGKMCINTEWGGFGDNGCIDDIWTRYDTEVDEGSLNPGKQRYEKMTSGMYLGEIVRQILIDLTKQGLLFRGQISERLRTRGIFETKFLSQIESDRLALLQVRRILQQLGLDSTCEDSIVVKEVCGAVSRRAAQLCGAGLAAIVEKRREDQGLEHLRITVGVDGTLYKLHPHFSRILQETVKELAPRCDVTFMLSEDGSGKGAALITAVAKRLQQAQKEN
The experiment is described as above.

Experiment [3] addresses T5, Flag-tagged IFNγ receptor 1 (IFNGR1) (UniProt P15260).
T5 sequence: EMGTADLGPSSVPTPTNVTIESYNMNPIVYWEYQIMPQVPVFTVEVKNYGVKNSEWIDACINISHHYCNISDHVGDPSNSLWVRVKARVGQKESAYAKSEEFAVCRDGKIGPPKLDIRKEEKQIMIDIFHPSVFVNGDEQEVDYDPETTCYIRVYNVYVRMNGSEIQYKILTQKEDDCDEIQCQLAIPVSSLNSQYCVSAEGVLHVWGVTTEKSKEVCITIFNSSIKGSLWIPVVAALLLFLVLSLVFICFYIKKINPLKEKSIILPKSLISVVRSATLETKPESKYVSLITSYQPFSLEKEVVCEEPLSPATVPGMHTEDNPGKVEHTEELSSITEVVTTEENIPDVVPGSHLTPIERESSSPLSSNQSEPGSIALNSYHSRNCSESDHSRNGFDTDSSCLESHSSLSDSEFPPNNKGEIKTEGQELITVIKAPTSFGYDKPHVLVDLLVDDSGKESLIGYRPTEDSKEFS
Briefly: co-IP; Flag- or HA-tagged proteins expressed in Hep3B (HCC) cells, with or without IFNγ stimulation, cells expressing NTC, shHKDC1 or shACTA2; NP-40 IP buffer, antibody overnight at 4 °C, protein A/G beads, Western blot.

Experimental findings from paper PMC10864387 are described below.

No constants are given. Whether binding was seen depends on the method and setting. For some assays here: Binding seen in cells or lysates may run through a third protein. Some binding calls cover weakened binding; strength is not graded here. For some assays here: Tags and fused reporters may be left off the sequences shown.

On to “STAT1, endogenous (from UniProt P42224 1-750)”, for which the binding entry in experiment [1] is “binds”. As to “HA-tagged STAT1 (from UniProt P42224 1-750)”, the binding entry in experiment [2] is on record as “binds”.

Regarding “TUBA4A, endogenous (from UniProt P68366 1-448)”, the binding entry in experiment [2] and in experiment [1] was “no binding” each time. Consider STAT1-His (from UniProt P42224 1-750), for which the binding entry with GST-HKDC1^WT (human) and with GST-HKDC1^S602A (human) was “binds” throughout.

B1: hexokinase domain component 1 (HKDC1), endogenous (protein, UniProt Q2TB90 1-917)
chain: MFAVHLMAFYFSKLKEDQIKKVDRFLYHMRLSDDTLLDIMRRFRAEMEKGLAKDTNPTAAVKMLPTFVRAIPDGSENGEFLSLDLGGSKFRVLKVQVAEEGKRHVQMESQFYPTPNEIIRGNGTELFEYVADCLADFMKTKDLKHKKLPLGLTFSFPCRQTKLEEGVLLSWTKKFKARGVQDTDVVSRLTKAMRRHKDMDVDILALVNDTVGTMMTCAYDDPYCEVGVIIGTGTNACYMEDMSNIDLVEGDEGRMCINTEWGAFGDDGALEDIRTEFDRELDLGSLNPGKQLFEKMISGLYLGELVRLILLKMAKAGLLFGGEKSSALHTKGKIETRHVAAMEKYKEGLANTREILVDLGLEPSEADCIAVQHVCTIVSFRSANLCAAALAAILTRLRENKKVERLRTTVGMDGTLYKIHPQYPKRLHKVVRKLVPSCDVRFLLSESGSTKGAAMVTAVASRVQAQRKQIDRVLALFQLTREQLVDVQAKMRAELEYGLKKKSHGLATVRMLPTYVCGLPDGTEKGKFLALDLGGTNFRVLLVKIRSGRRSVRMYNKIFAIPLEIMQGTGEELFDHIVQCIADFLDYMGLKGASLPLGFTFSFPCRQMSIDKGTLIGWTKGFKATDCEGEDVVDMLREAIKRRNEFDLDIVAVVNDTVGTMMTCGYEDPNCEIGLIAGTGSNMCYMEDMRNIEMVEGGEGKMCINTEWGGFGDNGCIDDIWTRYDTEVDEGSLNPGKQRYEKMTSGMYLGEIVRQILIDLTKQGLLFRGQISERLRTRGIFETKFLSQIESDRLALLQVRRILQQLGLDSTCEDSIVVKEVCGAVSRRAAQLCGAGLAAIVEKRREDQGLEHLRITVGVDGTLYKLHPHFSRILQETVKELAPRCDVTFMLSEDGSGKGAALITAVAKRLQQAQKEN
Consider B1, for which the binding result in experiment [3] is recorded as “binds”.

B2: HA-tagged HKDC1 (protein, UniProt Q2TB90 1-917)
chain: MFAVHLMAFYFSKLKEDQIKKVDRFLYHMRLSDDTLLDIMRRFRAEMEKGLAKDTNPTAAVKMLPTFVRAIPDGSENGEFLSLDLGGSKFRVLKVQVAEEGKRHVQMESQFYPTPNEIIRGNGTELFEYVADCLADFMKTKDLKHKKLPLGLTFSFPCRQTKLEEGVLLSWTKKFKARGVQDTDVVSRLTKAMRRHKDMDVDILALVNDTVGTMMTCAYDDPYCEVGVIIGTGTNACYMEDMSNIDLVEGDEGRMCINTEWGAFGDDGALEDIRTEFDRELDLGSLNPGKQLFEKMISGLYLGELVRLILLKMAKAGLLFGGEKSSALHTKGKIETRHVAAMEKYKEGLANTREILVDLGLEPSEADCIAVQHVCTIVSFRSANLCAAALAAILTRLRENKKVERLRTTVGMDGTLYKIHPQYPKRLHKVVRKLVPSCDVRFLLSESGSTKGAAMVTAVASRVQAQRKQIDRVLALFQLTREQLVDVQAKMRAELEYGLKKKSHGLATVRMLPTYVCGLPDGTEKGKFLALDLGGTNFRVLLVKIRSGRRSVRMYNKIFAIPLEIMQGTGEELFDHIVQCIADFLDYMGLKGASLPLGFTFSFPCRQMSIDKGTLIGWTKGFKATDCEGEDVVDMLREAIKRRNEFDLDIVAVVNDTVGTMMTCGYEDPNCEIGLIAGTGSNMCYMEDMRNIEMVEGGEGKMCINTEWGGFGDNGCIDDIWTRYDTEVDEGSLNPGKQRYEKMTSGMYLGEIVRQILIDLTKQGLLFRGQISERLRTRGIFETKFLSQIESDRLALLQVRRILQQLGLDSTCEDSIVVKEVCGAVSRRAAQLCGAGLAAIVEKRREDQGLEHLRITVGVDGTLYKLHPHFSRILQETVKELAPRCDVTFMLSEDGSGKGAALITAVAKRLQQAQKEN
With B2, the binding result in experiment [3] was “binds”.
